# Source: the supplement of paper PMC3334620
# The full ranking holds about 33,000 sequences; the median of “E-score (-0.5 to 0.5)” is about -0.056, and the highest 2% start at about 0.38. This is one part of the list.
# Molecular target: Stb4 (UniProt P50104)
# Assay: PBM E-score (8-mer binding enrichment) (E-score (-0.5 to 0.5)); higher = stronger / more preferred TF binding; most listed sequences are background and not binding sites
# Conditions: protein concentration: 200 nM; construct: GST-DNA-binding domain
# Summary of the method: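 Yeast transcription factors carrying a GST tag, as full-length proteins or DNA-binding domains, were produced by PURExpress in vitro transcription/translation. About 100-200 nM protein was applied to universal all-10-mer Agilent arrays, double-stranded by primer extension on fresh or once-stripped slides. Bound protein was detected with fluorescent anti-GST, and scans were normalised with masliner. The Universal PBM Analysis Suite gave each ungapped eight-base word, pooled with its reverse complement, an E-score, a modified Wilcoxon-Mann-Whitney statistic.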
row,Sequence,PBM E-score
1,ACTCTGCC,-0.191
2,ACCGAGAA,0.311
3,CTCCTAAC,-0.259
4,CATGGAAA,-0.032
5,ACAGCAGG,-0.0442
6,AATCATCA,-0.164
7,CCACGCGG,-0.00071
8,CCCATTAA,-0.202
9,GAGTGGGA,-0.0992
10,GCTATTTA,-0.05
11,GAAGCATA,-0.0469
12,ATGACGGA,0.217
13,ACGCACTG,-0.184
14,AAAAGACA,0.0104
15,AACGTAGG,-0.0963
16,AACACGTA,-0.0377
17,GACCGTCC,0.064
18,CAAAGCTC,0.0253
19,CCAAACAG,-0.345
20,GAGTAGAC,0.0497
21,GAGCGCTA,-0.149
22,AGTGACAT,-0.243
23,GCCAGGAA,-0.228
24,AATTCATA,-0.153
25,CCAGTTAA,0.0132

row,Sequence,PBM E-score
1,CCATAGAC,-0.22
2,GTTATCCA,0.0169
3,AGACCTCA,-0.366
4,AACCTGAC,-0.223
5,AGGACTCA,-0.145
6,AGGTACTC,-0.124
7,CACGATCA,-0.203
8,CGCATGCC,0.224
9,ACCTGCGG,0.0918
10,ATGGCTCA,-0.316
11,AATGTCCT,-0.127
12,AGCTGAAA,0.0434
13,AGTCGGCG,0.117
14,GAAGTTTA,0.138
15,ACTCGTGC,-0.0301
16,GAGGGATC,0.116
17,GACGACTC,0.115
18,CCCAACGA,-0.114
19,ACCTTAGT,-0.164
20,CCAACGCA,-0.109
21,TAAGCAGA,-0.0808
22,CGACATAA,0.0898
23,GAAGTTGC,-0.134
24,ACCGATGG,0.176
25,AGCTATAC,-0.196

row,Sequence,PBM E-score
1,CTCGCAGC,-0.0635
2,GTAGGCCA,-0.18
3,CAGTGGCG,-0.226
4,AGATGCTC,0.0615
5,ACGTGTTG,-0.131
6,CGTCCCAG,-0.196
7,AGGGTGGC,-0.156
8,CGCTCGAG,-0.154
9,GCGTCCCC,-0.0409
10,CATGGTGA,-0.0869
11,ACTCGCCT,-0.213
12,CTACTCCA,-0.257
13,GACTGAGA,-0.153
14,ACCGACCT,0.176
15,CTCCACGC,-0.0795
16,CCCTAGTA,-0.0177
17,GATAACAA,0.0225
18,GATGGCCC,0.0557
19,GAAGACTA,-0.0159
20,GCTACTTA,-0.315
21,ATGGCGTA,-0.0425
22,ACTAACGG,0.163
23,CCAATGTC,-0.188
24,ACCGGACC,0.266
25,CATGGCTC,-0.0721

row,Sequence,PBM E-score
1,GGTCAAAA,-0.0358
2,CCCAGGGC,-0.196
3,CATGTGAA,-0.0841
4,CTACCTAA,-0.158
5,GGAATGTA,0.229
6,GACTCTGC,-0.0834
7,AAAACTAC,0.0922
8,AGCTGGAC,-0.225
9,GGGCCAAC,0.0192
10,CTTTGGCA,-0.042
11,AAAAGGAA,0.107
12,AACAGGAT,-0.283
13,ACGGACAT,0.131
14,AGCAGACA,-0.0876
15,CACAAAGG,-0.0743
16,CCACAGCC,0.0742
17,CCCAGTCC,-0.0011
18,CCCACTGA,-0.148
19,CTCCAGAG,-0.019
20,GTGACATA,-0.0862
21,AGGACTGG,-0.265
22,CCTCCTAG,-0.234
23,GGGTGTAA,0.0872
24,AATTCAAA,-0.287
25,ACCAAGGG,-0.185

row,Sequence,PBM E-score
1,ATAGTCAA,-0.111
2,GGTCGCGA,0.0519
3,AGGGTGCC,-0.214
4,GTATCGGA,0.39
5,ACACGAAT,-0.00722
6,CAGCTCGG,0.392
7,AACCTAAT,-0.0366
8,AAGCCAGA,0.0259
9,AATATGAA,-0.111
10,CTGCCTGA,-0.0948
11,ACTACCGA,0.349
12,ATTCCGCG,0.271
13,ATCACAAT,-0.0437
14,CACGGAAA,0.352
15,TAGATGGA,-0.167
16,GAGTCCGC,0.122
17,GTAGAATA,-0.0899
18,GGACGCAC,-0.0598
19,CTAGCAAC,-0.0195
20,ACGTGACG,-0.0361
21,TCCACGCA,-0.0587
22,AAATAAGG,-0.00136
23,AGCTCCAC,0.00365
24,ACACGATG,-0.189
25,AGGAAGAC,-0.3

row,Sequence,PBM E-score
1,GCATTAAC,0.143
2,ATCGGCGC,0.205
3,ACGCCTCA,-0.25
4,GGTATAAC,0.00702
5,GCGCCCGA,0.261
6,AGTTTTAG,-0.183
7,GTTACTTA,0.0445
8,AAGACGCA,-0.102
9,CACCAGAG,-0.282
10,TAGCGACA,-0.154
11,ATCCTAAA,-0.193
12,GGACATGA,0.144
13,ACTGACAA,-0.147
14,GCAAGTCA,-0.0316
15,ACAACTAA,-0.126
16,ACCTAATA,0.00879
17,TCGGGGCA,0.226
18,TCATCGGA,0.403
19,CCAGAAGG,-0.109
20,GTGCTTAA,-0.0757
21,TAGGATAA,-0.0915
22,CGCTAACC,0.0933
23,ATCGTCAC,-0.193
24,GACCTCCC,0.0971
25,ACATTTTC,0.117

row,Sequence,PBM E-score
1,GTGTAATA,-0.0136
2,ATGGCCAA,-0.131
3,GCGGGCCA,0.00921
4,CTCTTGTC,-0.0749
5,AGATTTAG,-0.0774
6,TACATTAA,-0.0317
7,AATTATCC,0.268
8,ACATGGTA,-0.0896
9,CAAGGGCA,-0.139
10,ACGCCATC,0.0216
11,ATGAGACC,-0.0804
12,ATCAAAGG,-0.0908
13,CCACCGAA,0.104
14,ATTCATGA,-0.244
15,GTACACAA,-0.091
16,GTACAACA,-0.0463
17,ATACATGC,-0.115
18,CGCGTTCA,0.0551
19,CATGCCGG,0.239
20,GCAGGAAC,-0.0981
21,CTATGACA,-0.0513
22,CGTCTTGA,-0.00666
